PubChem BioAssay AID504332 (National Center for Advancing Translational Sciences (NCATS), 2011)
About 31,000 (8.9%) of roughly 350,000 compounds were called active. Inconclusive means that the source gave no clear call. Such entries were picked first, then a sample of the others. The call rests on the fitted dose curve; in most records, active means well fitted inhibition curve with a large enough effect; inconclusive means small, poorly fitted or top-dose-only effect; inactive means no such curve, though single readings can be large or run the other way. Potencies beside an inconclusive call are fits to weak or partial responses and may not hold up.

Molecular target: Histone-lysine N-methyltransferase EHMT2 (Homo sapiens) (UniProt Q96KQ7)
Chain of UniProt Q96KQ7 (Q96KQ7 whole entry, looked up): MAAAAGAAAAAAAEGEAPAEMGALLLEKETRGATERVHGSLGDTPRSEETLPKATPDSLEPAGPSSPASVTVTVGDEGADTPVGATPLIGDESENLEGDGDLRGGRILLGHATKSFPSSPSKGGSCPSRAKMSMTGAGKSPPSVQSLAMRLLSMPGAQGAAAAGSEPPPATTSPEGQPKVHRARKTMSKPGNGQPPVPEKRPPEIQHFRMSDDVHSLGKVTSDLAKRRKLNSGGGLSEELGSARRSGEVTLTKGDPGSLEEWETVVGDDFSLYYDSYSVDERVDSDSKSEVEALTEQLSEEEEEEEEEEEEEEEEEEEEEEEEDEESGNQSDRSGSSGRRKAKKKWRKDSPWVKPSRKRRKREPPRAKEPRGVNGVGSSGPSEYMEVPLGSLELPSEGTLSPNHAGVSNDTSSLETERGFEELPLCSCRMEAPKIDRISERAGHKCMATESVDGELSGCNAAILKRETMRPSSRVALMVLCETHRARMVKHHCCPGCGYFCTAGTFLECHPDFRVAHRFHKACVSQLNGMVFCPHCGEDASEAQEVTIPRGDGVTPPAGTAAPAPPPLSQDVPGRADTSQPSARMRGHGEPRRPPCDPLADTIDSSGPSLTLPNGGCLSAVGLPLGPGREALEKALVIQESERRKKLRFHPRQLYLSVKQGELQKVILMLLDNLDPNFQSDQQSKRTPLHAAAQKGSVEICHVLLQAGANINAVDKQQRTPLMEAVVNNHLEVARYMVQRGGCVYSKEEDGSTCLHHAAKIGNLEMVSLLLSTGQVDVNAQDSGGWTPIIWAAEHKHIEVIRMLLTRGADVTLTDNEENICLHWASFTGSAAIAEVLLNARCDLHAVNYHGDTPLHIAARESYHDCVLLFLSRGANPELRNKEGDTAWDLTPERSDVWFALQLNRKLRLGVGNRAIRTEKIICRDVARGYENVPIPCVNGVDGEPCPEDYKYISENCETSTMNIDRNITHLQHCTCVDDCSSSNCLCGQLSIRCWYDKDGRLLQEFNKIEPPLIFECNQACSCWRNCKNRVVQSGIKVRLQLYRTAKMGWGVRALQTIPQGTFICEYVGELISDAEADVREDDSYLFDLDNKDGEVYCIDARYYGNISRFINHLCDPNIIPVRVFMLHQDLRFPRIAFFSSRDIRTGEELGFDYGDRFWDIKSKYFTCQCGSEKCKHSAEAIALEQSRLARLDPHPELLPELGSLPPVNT
Assay: qHTS Assay for Inhibitors of Histone Lysine Methyltransferase G9a; further: nearly all actives have a fitted effect of over 75% in size
Conditions: G9a H3K9 monomethylation, AlphaScreen, 2 h; activity, negative = inhibition: at 59 µM (top of the series) unless noted
Outline: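 Using a bead-based AlphaScreen, monomethylated H3K9 product from 2 h room-temperature reactions (G9a 20 nM, peptide 500 nM, SAM 20 uM) was detected with 0.5 ug/mL rabbit anti-H3K9me1 antibody.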
On the % scale 0 is the no-effect control and ±100 the full control effect; potency means the concentration at half of the fitted maximal effect; tags describe the fitted curve by direction and shape.

Row | SMILES | Potency | activity, negative = inhibition
1 | CCOC(=O)c1ccccc1-c1csc(NS(=O)(=O)c2ccc(Cl)cc2)n1 | inactive | 
2 | COc1ccccc1OCC(=O)NCCNC(=O)COc1ccccc1OC | inconclusive: 89.1 µM [inhibitor, single point] | 
3 | O=C(c1cccc(NS(=O)(=O)c2ccc(F)c(F)c2)c1)N1CCN(Cc2ccccc2)CC1 | inconclusive: 1.78 µM [inhibitor, partial curve, poor fit] | 
4 | CCCCOC(=O)c1ccc(NC(=O)CSc2nc3c(c(=O)[nH]2)CCC3)cc1 | inconclusive: 39.8 µM [inhibitor, partial curve, poor fit] | 
5 | COCCNC(=O)C1CC(c2ccccc2C(F)(F)F)=NO1 (centres undefined) |  | inactive: -1.79% [at 2.33 µM]
6 | Cc1ccc(C)n1-c1ccc(C(=O)NCC2CCCO2)cc1 (centres undefined) | inconclusive: 79.4 µM [inhibitor, partial curve, poor fit] | 
7 | COc1cc(-c2nc3cccc(C)n3c2Nc2ccc3c(c2)OCCO3)ccc1O | inconclusive: 7.94 µM [inhibitor, partial curve] | 
8 | CCN(CC)c1ccc(/C=N/N2CCN(Cc3ccc(C)cc3C)CC2)c(O)c1 | inconclusive: 25.1 µM [inhibitor, single point] | 
9 | Cc1ccccc1CN1c2ccccc2-c2nc(SCC(=O)Nc3cc(F)ccc3F)ncc2S1(=O)=O | inactive | 
10 | CCCCn1c(N)c(N(Cc2ccccc2OC)C(=O)c2cc(CC)c(C)s2)c(=O)[nH]c1=O |  | inactive: 12.8% [at 12.7 µM]
11 | CCOc1cccc2sc(N(CCN(CC)CC)C(=O)c3cccc(N4C(=O)CCC4=O)c3)nc12 | inconclusive: 31.6 µM [inhibitor, partial curve, poor fit] | 
12 | CN(C)CCCN(C(=O)c1ccc(S(=O)(=O)N2CCc3ccccc32)cc1)c1nc2ccc(Cl)cc2s1 | inconclusive: 50.1 µM [inhibitor, partial curve, poor fit] | 
13 | Cc1ccc(Cl)cc1NC(=O)c1cc(-c2ccc3c(c2)OCCO3)on1 | inactive | 
14 | CC(C)C(=O)N(Cc1ccc2c(c1)OCO2)Cc1ccccn1 | active: 39.8 µM | 
15 | COc1ccc(-c2cc(=O)oc3cc(OCC(=O)NCC4CCC(C(=O)O)CC4)ccc23)cc1 (centres undefined) | inconclusive: 89.1 µM [inhibitor, single point] | 
16 | CC(=O)c1ccc(NC(=S)NCCc2cccc(Cl)c2)cc1 | inactive | 
17 | O=C(Cc1ccc(NC(=O)N2CCCCc3ccccc32)cc1)Nc1ccccc1Br | inactive | 
18 | CCNC(=S)N1CCn2cccc2C1c1ccc(F)cc1 (centres undefined) | inconclusive: 50.1 µM [inhibitor, partial curve, poor fit] | 
19 | CCCn1c2ccccc2c2nnc(SCCN3CCOCC3)nc21 | inconclusive: 79.4 µM [inhibitor, single point] | 
20 | Nc1cc([N+](=O)[O-])ccc1Nc1ccc(O)cc1 | active: 10 µM | 
21 | COc1ccc(CCNC(=O)COc2ccc(C)nc2[N+](=O)[O-])cc1 | inconclusive: 39.8 µM [inhibitor, partial curve, poor fit] | 
22 | Cc1cccc(NC(=O)C(=O)N/N=C/c2ccncc2)c1 | inconclusive: 50.1 µM [inhibitor, partial curve, poor fit] | 
23 | CC1CCN(CC(=O)Nc2ccc(C(=O)N3CCCCC3)cc2)CC1 | active: 28.2 µM | 

Row | SMILES | Potency | activity, negative = inhibition
24 | Cc1nc(-c2ccc(S(=O)(=O)Nc3cccc(Cl)c3)cc2)co1 | inconclusive: 79.4 µM [inhibitor, single point] | 
25 | COc1cc2c(cc1OC)CN(C(=O)c1ccc(OC)c(S(=O)(=O)N3CCCC3)c1)CC2 | inconclusive: 56.2 µM [inhibitor, partial curve, poor fit] | 
26 | CCCCNc1cc(N2CCN(C3CCCCC3)CC2)c2noc3c2c1C(=O)c1ccccc1-3 | inconclusive: 8.91 µM [inhibitor, full curve] | 
27 | Cc1c(NC(=O)c2coc(=O)c(Br)c2)c(=O)n(-c2ccccc2)n1C | inconclusive: 25.1 µM [inhibitor, single point] | 
28 | O=C(O)c1cc(/C=C/c2ccc(N3CCOCC3)cc2)nc2ccccc12 | inconclusive: 50.1 µM [inhibitor, partial curve, poor fit] | 
29 | N=c1c(-c2nc3ccccc3[nH]2)cc(C(=O)c2ccco2)nn1-c1ccccc1 | inactive | 
30 | CCCn1cc(SCC(=O)Nc2ccc3c(c2)OCO3)c2ccccc21 | inconclusive: 31.6 µM [inhibitor, single point] | 
31 | S=C(NCCc1ccccc1)Nc1ccc(Br)cn1 | active: 7.08 µM | 
32 | CC(C)OP(C)(=O)CN1CCN(CP(C)(=O)OC(C)C)CC1 (centres undefined) | inconclusive: 35.5 µM [inhibitor, single point] | 
33 | CN1CCN(S(=O)(=O)c2cccc(C(=O)NCCOc3ccccc3F)c2)CC1 | inconclusive: 50.1 µM [inhibitor, partial curve, poor fit] | 
34 | COc1ccc(NC(=O)CCN=C2NS(=O)(=O)c3ccccc32)cc1S(=O)(=O)N(C)C | inconclusive: 7.08 µM [inhibitor, single point] | 
35 | Cc1cc(Br)ccc1-n1[nH]c(C)c(C=Nc2cccc3nsnc23)c1=O | inconclusive: 31.6 µM [inhibitor, full curve, poor fit] | 
36 | CC(C)C(=O)Nc1ccc2c(c1)nc1n2CCSC1 |  | inconclusive: -51% [inhibitor]
37 | CCc1ccc(Cn2c(CNS(=O)(=O)c3ccc4c(c3)CCCC4)nc3cccnc32)cc1 | inactive | 
38 | COCCN1CCn2c(nc3cc(NC(=O)NC4CCCCC4)ccc32)C1 | inconclusive: 4.47 µM [inhibitor, partial curve, poor fit] | 
39 | Cc1ccc(C2=NNC(c3cccc(F)c3)S2)cc1 (centres undefined) | inconclusive: 39.8 µM [inhibitor, single point] | 
40 | Cc1nc(NC(=O)CCCC(=O)Nc2nc(C)c(C)s2)sc1C | inconclusive: 22.4 µM [inhibitor, single point] | 
41 | Cn1c(SCC(=O)NC(C)(C)C)nc(O)cc1=O | inconclusive: 89.1 µM [inhibitor, single point] | 
42 | CC[C@H](C)[C@@H](C(=O)N1CCNCC1)n1cc([C@@H](N)CO)nn1 |  | inconclusive: -80.4% [inhibitor]
43 | COc1ccc(-c2c(C)nn3c(-c4ccccc4)cc(-c4ccccc4)nc23)cc1 | inconclusive: 0.562 µM [inhibitor, partial curve, poor fit] | 
44 | O=[N+]([O-])c1cc(C(F)(F)F)ccc1Sc1nccn1Cc1ccccc1 | active: 44.7 µM | 
45 | Cn1c(CCN2CCN(c3ccccn3)CC2)nc2cc(NS(=O)(=O)c3ccc(Cl)cc3)ccc21 | inconclusive: 63.1 µM [inhibitor, single point] | 
46 | Cc1ccc(C(=O)CSc2nnc(-c3ccccc3)n2-c2ccccc2)o1 | inconclusive: 39.8 µM [inhibitor, single point] | 

Row | SMILES | Potency | activity, negative = inhibition
47 | Cc1ccc2[nH]c(=O)c(CN(CCCN(C)C)C(=S)NCCc3ccccc3)cc2c1 | inconclusive: 50.1 µM [inhibitor, partial curve] | 
48 | CCc1ccccc1NC(=O)c1ncoc1-c1ccco1 | inactive | 
49 | Nc1n[nH]c(-c2ccc(F)cc2)n1 | active: 44.7 µM | 
50 | Cc1c(NC(=O)/C(C#N)=C/c2cccs2)c(=O)n(-c2ccccc2)n1C | inactive | 
51 | COc1ccc(-c2cc([C@H]3[C@@H]4C=CCC[C@@]4(C)C(=O)N3Cc3ccccc3)ccc2F)cc1 |  | inconclusive: -88.5% [inhibitor] [at 12.7 µM]
52 | O=C(c1ccc(S(=O)(=O)N2CCCCC2)cc1)N(c1ccccn1)C1CCCCC1 | inconclusive: 89.1 µM [inhibitor, partial curve, poor fit] | 
53 | COc1ccccc1NS(=O)(=O)c1cc(NC(=O)Nc2ccc(Cl)cc2Cl)ccc1N1CCCCC1 | active: 3.55 µM | 
54 | O=c1[nH]c2ccc(Cl)cc2c(-c2ccccc2)c1SC(=S)N1CCCCC1 | active: 11.2 µM | 
55 | O=C(O)CCCn1cc(NC(=O)COc2ccccc2F)cn1 | inactive | 
56 | CN(CC(=O)Nc1cccc(F)c1)C(=O)c1cc(=O)[nH]c2ccccc12 | active: 8.91 µM | 
57 | CC(C)C[C@@H](N)C(=O)O | inactive | 
58 | O=C(CS(=O)(=O)c1ccc(F)cc1)Nc1nccs1 | inconclusive: 56.2 µM [inhibitor, partial curve] | 
59 | CCn1c(NCc2cc(OC)ccc2OC)nc2ccccc21 | inconclusive: 79.4 µM [inhibitor, partial curve, poor fit] | 
60 | CC1CN(Cc2c(O)ccc3c2oc(=O)c2ccccc23)CC(C)O1 (centres undefined) | active: 0.447 µM | 
61 | COc1ccc(CCNC(=O)c2ccc(CSCc3ccc(C)cc3)o2)cc1OC | inactive | 
62 | CC1CCCN(C(=O)c2ccc3c(c2NCCO)C(=O)c2ccccc2C3=O)C1 (centres undefined) |  | inactive: 2.22% [at 12.7 µM]
63 | Cc1ccc(C(=O)Nc2nnc(S(=O)(=O)N3CCCc4ccccc43)s2)cc1 | inactive | 
64 | CCOC(=O)CSc1nnc(Cc2ccccc2)n1-c1ccc(C)cc1 | inconclusive: 39.8 µM [inhibitor, single point] | 
65 | Fc1ccc(Nc2c(-c3c[nH]c4ccccc34)nc3ccccn23)cc1 | inconclusive: 5.01 µM [inhibitor, partial curve] | 
66 | COC(=O)c1sc(NC(=O)c2csc3c2CCCC3)nc1C | inconclusive: 63.1 µM [inhibitor, partial curve, poor fit] | 
67 | O=C(Cc1cccs1)Nc1ccc(N2CCOCC2)cc1 | inactive | 
68 | COCc1cc(C)nc(OCC(=O)N/N=C/c2ccc(-c3cc([N+](=O)[O-])ccc3Cl)o2)c1C#N | inactive | 
69 | CC1=C/C(=N\OS(=O)(=O)c2ccccc2)C=CC1=O | active: 2.51 µM | 
